How the values were obtained:
[1] = target: T1, 重组人IL-1RAP-ECD(S21-E359)-avi-his蛋白 (human, UniProt Q9NPH3 21-359, biotinylated in the BLI binning assay); test: SPR; IgG1 LALA captured on anti-human IgG Fc chip, human IL-1RAP-avi-his as analyte
T1 construct: also called 人IL-1RAP-ECD-Avi-His; 重组人IL-1RAP-avi-his蛋白
T1 sequence: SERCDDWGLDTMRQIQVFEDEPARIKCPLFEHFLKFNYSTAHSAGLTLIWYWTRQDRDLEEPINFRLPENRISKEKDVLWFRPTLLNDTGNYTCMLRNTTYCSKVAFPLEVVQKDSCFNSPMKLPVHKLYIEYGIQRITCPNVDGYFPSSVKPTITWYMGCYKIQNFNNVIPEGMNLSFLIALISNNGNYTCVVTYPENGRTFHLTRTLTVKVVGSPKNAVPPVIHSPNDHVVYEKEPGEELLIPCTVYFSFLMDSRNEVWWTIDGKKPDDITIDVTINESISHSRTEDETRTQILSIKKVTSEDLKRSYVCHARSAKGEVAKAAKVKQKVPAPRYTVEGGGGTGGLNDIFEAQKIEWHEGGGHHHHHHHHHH

[2] = target: T2, 重组食蟹猴IL-1RAP-ECD(S21-E359)-avi-his蛋白 (cynomolgus monkey, UniProt P59822 21-359 (rhesus entry), biotinylated in the Fab SPR assay); test: SPR; IgG1 LALA captured on anti-human IgG Fc chip, cynomolgus IL-1RAP-avi-his as analyte
T2 construct: also called 食蟹猴IL-1RAP-ECD-Avi-His; 重组食蟹猴IL-1RAP-avi-his蛋白
T2 sequence: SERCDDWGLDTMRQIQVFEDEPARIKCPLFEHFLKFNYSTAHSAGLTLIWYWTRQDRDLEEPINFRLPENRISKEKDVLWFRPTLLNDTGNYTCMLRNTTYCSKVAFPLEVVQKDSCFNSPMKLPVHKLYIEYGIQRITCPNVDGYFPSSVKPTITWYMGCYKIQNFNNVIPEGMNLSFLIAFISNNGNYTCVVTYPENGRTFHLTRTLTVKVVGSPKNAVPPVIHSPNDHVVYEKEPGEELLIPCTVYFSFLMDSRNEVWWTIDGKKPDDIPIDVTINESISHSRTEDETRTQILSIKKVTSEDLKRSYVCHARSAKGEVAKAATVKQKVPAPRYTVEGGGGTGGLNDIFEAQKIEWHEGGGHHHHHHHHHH

B1: 抗IL1-RAP-C8-RecC-ES-IgG1-LALA (antibody)
heavy: QVQLVQSGAEVKKPGSSVKVSCKASGSPAEPYAIQWVRQAPGQGLEWMGYIIPSLGGYDYAQKFQGRVTITADESTSTAYMELSSLRSEDTAVYYCARGQTLYESGRQFDIWGQGTLVTVSS[skipping human IgG1 constant region with changes]
light: EIVMTQSPATLSVSPGERATLSCRASQSVSSNLAWYQQKPGQAPRLLIYGASTRATGIPARFSGSGSGTEFTLTISSLQSEDFAVYYCQQYNNWPWTFGQGTKVEIKRTVAAPSVFIFPPSDEQLKSGTASVVCLLNNFYPREAKVQWKVDNALQSGNSQESVTEQDSKDSTYSLSSTLTLSKADYEKHKVYACEVTHQGLSSPVTKSFNRGEC
notes: D100/S100a (Kabat) of C8-RecC CDR-H3 replaced by ES
- binding result [1]: binds
- binding result [2]: binds

From patent CN116615457A (ICONOSCO S A, dated 2023)
